# Data taken from article PMC12136788.
# The other results are listed elsewhere or left out.
# T1: UNK ZnF1-3 (human, UniProt Q9C0B0 31-174)
# T1 sequence: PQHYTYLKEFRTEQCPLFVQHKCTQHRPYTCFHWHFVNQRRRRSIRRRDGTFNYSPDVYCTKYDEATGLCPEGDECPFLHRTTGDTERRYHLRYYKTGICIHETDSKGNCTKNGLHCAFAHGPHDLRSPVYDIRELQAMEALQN
# B1: chr7:7679991:7679992:-_ENSG00000106399_ENST00000396682|hu_hu|hu_hu_hu_mus_False|88_88 (ssRNA)
# RNA: GGGAGUUCUACAGUCCGACGAUCUGGGAUGAAUCUUUUCCAGCUUCCCUACGAAGCACACGGGCCGGUCGAUAUACUGUGGUAACAUGCUGGCGUUGACGCGCGCUUUGGGGAGCUGCAUUAUGUCCUCCAUGAUUCUGCCGCCAACAGAGGAUUGAGCAUCA
# B2: chr2:153237265:153237266:-_ENSMUSG00000061411_ENSMUST00000109784|mus_mus|mus_mus_mus_hu_False|58_108 (ssRNA)
# RNA: GGGAGUUCUACAGUCCGACGAUCAAAAAAAAGAAAAAAAAAGUGUCCUUGUGCCCAAAGUCUCAGGUGCUUGGAGUGCAGCUAGAAACAGCUCUUUUGGAUCCCACCUCUUUCAAAAACAAAAUGUACCAACUGGUGAGGCAGCAACAGAGGAUUGAGCAUCA
# B3: chr12:110819636:110819637:-_ENSG00000196510_ENST00000455511|hu_mus|FALSE|FALSE (ssRNA)
# RNA: GGGAGUUCUACAGUCCGACGAUCAAGCCUGAUGGCCUCCCGAAAGUGUAUGAUGGCUUCCUGGACCCUCCCCAUGUUCCUAAGCGCCGCCCCCUUGAGUAACAGAGCCUGGACGCUGUUGCUGUUCAGCUGGAUGGCCUUGGCCAACAGAGGAUUGAGCAUCA
# B4: chr6:170852807:170852808:-_ENSG00000008018_ENST00000262193|hu_mus|FALSE|FALSE (ssRNA)
# RNA: GGGAGUUCUACAGUCCGACGAUCGAUGGUAGACAGCAUUGCAGCAAUCGCCCCCGUUGUCAUGGCCUUGUUAUUGGAAUGCUUGUACAUCUUUAAUCUUGCUUCAAUAAUCUUUGUCAAAGUGAGACAAUCUCCAUGGAAACCCAACAGAGGAUUGAGCAUCA
# B5: 50489598_50490197_1917_CDS_ENSMUSG00000032064_ENSMUST00000117646|mouse|control|control (ssRNA)
# RNA: GGGAGUUCUACAGUCCGACGAUCAGGGGGCCAGGAUGCCCGGUAUUCACUGCUUGCUUGAUUUCUGGGUGACCGCCCCCCAACCUUCCUUUCUUGUUUCUUCUGUGUCUCUACGACAUGCAGACGCUCCAUGAGGCUAGAGAUCAACAGAGGAUUGAGCAUCA
# B6: 49438674_49439748_4755_CDS_ENSG00000167548_ENST00000301067|human|control|control (ssRNA)
# RNA: GGGAGUUCUACAGUCCGACGAUCCAUGGUCAGGUUACGCAGCAAGGCCAUGCCAGUUUCUGUCAGCCACACACCUUCGAAGCGAAAGUACUGGGGCUCUGGCUCUUUCACCUUCAUGGGCACCAGCUCUGGAGGUGCAACAGGCAACAGAGGAUUGAGCAUCA
# B7: 48734410_48737159_2188_CDS_ENSG00000162869_ENST00000294952|human|control|control (ssRNA)
# RNA: GGGAGUUCUACAGUCCGACGAUCUCGGCACUCGGCAUAAAAAUGCACUGACUUACUGUCAGCCAGCUGCAACUGAGACGUAAGUUCCACUAUCCUUGCCAUGUAGUGAUUUUUAAUUAAGUCUUCACGAGAUUCCACAUCUGGCAACAGAGGAUUGAGCAUCA
# B8: chr16:94651144:94651145:+_ENSMUSG00000040785_ENSMUST00000117648|mus_hu|mus_mus_mus_hu_True|28_58 (ssRNA)
# RNA: GGGAGUUCUACAGUCCGACGAUCAUUUUCUUGAAUCAAGUGGCGAAUAACAUAGUCCACUGCUUCAUUUAGAAAAUUUUUGCUAGAAAAACAGGUUGUAUAGUCUUCCGUGCUCAGAACUUUCCAAGAAAGCAAUUCUUUGAGCAACAGAGGAUUGAGCAUCA
# B9: 132805258_132805378_123_5pUTR_ENSG00000187239_ENST00000446176|human|control|control (ssRNA)
# RNA: GGGAGUUCUACAGUCCGACGAUCCAGGGGACGCGAAGGGGCGCUCCGCGCGGCGGGCGCGGCUCUCUGGUCCCCCUCCCCGGCGAUCCCUUUGCCCCCCGAGAUCCCCGCGACGGCGGAAAGCCCGGAGUCCGCGCGGCCUCCCAACAGAGGAUUGAGCAUCA
# B10: chr19:8913615:8913616:-_ENSMUSG00000071658_ENSMUST00000096259|mus_hu|mus_mus_mus_hu_False|18_28 (ssRNA)
# RNA: GGGAGUUCUACAGUCCGACGAUCAGGGUACCAAAACCUUCUGCCUGAAAUGGGUGCCCCACCCAGUAGGGAGUUGCAGCUGAAAGUAUCUGAUGCAGAAGCAGUGAAUGCAGAGAAGGUCACUAGAGGGGAGGGCCAGGCCAGCAACAGAGGAUUGAGCAUCA
# B11: chr6:57703266:57703267:-_ENSMUSG00000037788_ENSMUST00000114297|mus_hu|FALSE|FALSE (ssRNA)
# RNA: GGGAGUUCUACAGUCCGACGAUCAAGAGGCUCUGAUUAGUUCAUUAAAAAAUAAGCACCCCCACCUCAUUCCCCGUGAUACAGCACAUCUAGUAAUCUAGGCGCCUCAGCUAAGCUGCAUAGCUCUUAGCACACAGGACAGGUCAACAGAGGAUUGAGCAUCA
# B12: chr8:92090715:92090716:+_ENSG00000155100_ENST00000285420|hu_mus|FALSE|FALSE (ssRNA)
# RNA: GGGAGUUCUACAGUCCGACGAUCUCUCAGCUGAUCCUCAAGUGCUCCAUACAUACAGUGACCAUCAGAUGGAAUCUGUUUAAUUUCCAAUUCUCUGGCUGCCAAUAUUUGAGCAAGUUUUUCACUCUCAAGAUGUCUGGCUCCCAACAGAGGAUUGAGCAUCA
# B13: chr8:80577299:80577300:+_ENSG00000104435_ENST00000220876|hu_mus|FALSE|FALSE (ssRNA)
# RNA: GGGAGUUCUACAGUCCGACGAUCUAUUUUUUAACAAAAAUGUAAAUAUUUACAAAAUAAGAUCCAAGGUACUUUUUUAAACAUCAAGCAAAACAUUCUGCAAAGAGACCGCAUUGAUUUUUAUUUUAUUUUUGAUUCUGUUUUCAACAGAGGAUUGAGCAUCA
# B14: chr5:38529146:38529147:-_ENSMUSG00000029126_ENSMUST00000031009|mus_mus|motif|central (ssRNA)
# RNA: GGGAGUUCUACAGUCCGACGAUCAGAAAAGCUAAAGUAGCCCUGGCUUACCCAAAAUUACAUUUCACUUUGCCCACUGGCGGAUAAAACAAAACAAAACAAAACAAAAAACCCAAACUGCACCUGCAUUCAGGGCUGUACGUGCAACAGAGGAUUGAGCAUCA
# B15: chr1:109605286:109605287:-_ENSG00000197780_ENST00000461096|hu_mus|hu_hu_hu_mus_True|88_98 (ssRNA)
# RNA: GGGAGUUCUACAGUCCGACGAUCAAGUUUCAGAGUAUUCAGUGAUCUACUUAAAUCAUGCAAUUAUCCUUAUUAUAAGCUAAGCAGAAUAAUAAUUUAAUACCGUAAGUGAACUACACACAAAGCCUGAACCGCGAAAAUGGUCAACAGAGGAUUGAGCAUCA
# B16: chr1:94914393:94914394:-_ENSMUSG00000014602_ENSMUST00000171796|mus_mus|motif|central (ssRNA)
# RNA: GGGAGUUCUACAGUCCGACGAUCCCUUUAUUGCUCCAUUUUGGGAACUGUUCCCUCAGAAGGGUGACUUCUGAAUUGUCGGAGUCUCAGAACUUGCACAACCUCUCACACACGUACCAUGCAAGGUGCAUCUCAGACAAAACUCAACAGAGGAUUGAGCAUCA
# B17: chr7:149068622:149068623:-_ENSMUSG00000025139_ENSMUST00000001950|mus_hu|mus_mus_mus_hu_False|8_68 (ssRNA)
# RNA: GGGAGUUCUACAGUCCGACGAUCGUGAGGCCUCUGAGUGUGGCUUGUGGUCUGUCCUGGGUUAGAGCUGCUGGUAACACGGAACAUACCAUCUAGAACGUUCCAGUCCCGCCUGACACCUUCAUUCGCAAGAGGGCAGAAAUCCAACAGAGGAUUGAGCAUCA
# B18: chr7:140404665:140404666:+_ENSG00000090266_ENST00000247866|hu_hu|hu_hu_hu_mus_False|38_78 (ssRNA)
# RNA: GGGAGUUCUACAGUCCGACGAUCUGCUCCUACUCGUCCAGAGAGUUUACAGUGUCAGUCUUCAUCAUCAGGAGGGAUUCCCAGUUCUUCAUCUGUCCACUGGGAAGGAUCUGGAUAUGAAAAGUGACCCAGCACAGCAUCCGACAACAGAGGAUUGAGCAUCA
# B19: chr3:179287964:179287965:+_ENSG00000136518_ENST00000429709|hu_hu|hu_hu_hu_mus_True|58_68 (ssRNA)
# RNA: GGGAGUUCUACAGUCCGACGAUCCUUGAGUGGUGAGAUGGCCUCCAUGUUCUCCCUGGGCACGCGGAGAGCAUUAGUAUCUAUGUAGUAGGUGGGCCCGCCCUGCUUGCCUUUGUCACCAUCAAUCUCCAUCAUUGUACUUCCCAACAGAGGAUUGAGCAUCA
# B20: chr17:20919178:20919179:-_ENSG00000124422_ENST00000537526|hu_hu|FALSE|FALSE (ssRNA)
# RNA: GGGAGUUCUACAGUCCGACGAUCGAGCACGUCCAGGGCCGCGAUGAGGAACUCGUGGGCGUCCUGCUGCUCGUAGCCUGCUAGGUGCCUCGCGUGGGUCCACACCAGGUGCAGCAACUUAUACGGGAUGUGAGGGGACCGGUGCAACAGAGGAUUGAGCAUCA
# B21: chr3:9412954:9412955:+_ENSG00000134077_ENST00000452837|hu_hu|FALSE|FALSE (ssRNA)
# RNA: GGGAGUUCUACAGUCCGACGAUCUGUUGAUACAUCCUCUUUGAUGGCUGGAUUUUCAUAAUAAUCUAAGAUAUGAGAAUCUAAAGCAUGGCUAGUGAACUCUUUUUUAACAUUUCUCUGAUCGAUUUUGACUUCUUGUCCAUUCAACAGAGGAUUGAGCAUCA
# B22: chr15:12740188:12740189:-_ENSMUSG00000022195_ENSMUST00000057256|mus_mus|FALSE|FALSE (ssRNA)
# RNA: GGGAGUUCUACAGUCCGACGAUCUCAGCGAAUAAAUAAAUAAAUCUCAUAUCAUCCAAACCCUUGUUGGGGAAAGAGAAAAAAAAAAAACCCCUCUUACAGAAUCAAAGGCAGCGAUGGGAAGCAAGGAAGAUAACAGACAGUCAACAGAGGAUUGAGCAUCA
# Molecular target: T1, UNK ZnF1-3
# Assay: nsRBNS (natural sequence RNA bind-n-seq); RBNS binding buffer (assumed for nsRBNS): 25 mM Tris pH 7.5, 150 mM KCl, 3 mM MgCl2, 0.01% Triton X-100, 500 ug/ml BSA, 20 U/ml SUPERase-In, 4 C; UNK is unkempt and MSI1 is Musashi-1; names of the RNAs are library labels; protein concentration not given here; high values mean tight binding
row,Binder,binding signal [enrichment R]
1,B1,0.541
2,B2,2.52
3,B3,0.762
4,B4,0.887
5,B5,0.651
6,B6,1.05
7,B7,0.903
8,B8,0.473
9,B9,1.3
10,B10,1.52
11,B11,1.51
12,B12,0.922
13,B13,1.54
14,B14,1.58
15,B15,0.687
16,B16,0.787
17,B17,0.953
18,B18,1.5
19,B19,0.863
20,B20,1
21,B21,0.525
22,B22,2.15
